“And” between values parts separate entries of the source, which are not always exact repeats. Equal values may be shown once. Screen size: about 410,000 compounds; about 6,400 (1.6%) were called active. Inconclusive means that the source gave no clear call. Such entries were picked first, then a sample of the others. The call rests on the fitted dose curve; in most records, active means well fitted inhibition curve with a large enough effect; inconclusive means small, poorly fitted or top-dose-only effect; inactive means no such curve, though single readings can be large or run the other way. Potencies of inconclusive entries are doubtful fits and often do not repeat.
Biological target: Glucagon-like peptide 1 receptor (Homo sapiens) (UniProt P43220)
UniProt P43220, sequence (P43220 whole entry, looked up): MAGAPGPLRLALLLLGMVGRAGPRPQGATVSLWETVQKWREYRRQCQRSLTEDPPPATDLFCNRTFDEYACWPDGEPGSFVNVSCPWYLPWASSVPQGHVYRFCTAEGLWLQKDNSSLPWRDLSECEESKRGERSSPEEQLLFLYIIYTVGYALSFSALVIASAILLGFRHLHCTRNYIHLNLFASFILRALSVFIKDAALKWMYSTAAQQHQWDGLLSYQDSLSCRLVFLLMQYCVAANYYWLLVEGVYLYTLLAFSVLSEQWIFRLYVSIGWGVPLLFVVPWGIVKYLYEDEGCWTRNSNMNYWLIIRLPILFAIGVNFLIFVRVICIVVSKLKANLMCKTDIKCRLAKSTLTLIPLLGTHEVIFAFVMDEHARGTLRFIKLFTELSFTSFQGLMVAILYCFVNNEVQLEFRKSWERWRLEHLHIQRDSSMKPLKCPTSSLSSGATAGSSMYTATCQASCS
Assay: qHTS of GLP-1 Receptor Inverse Agonists (Inhibition Mode); further: nearly all actives have a fitted effect of over 55% in size
Details: HEK293 GLP-1R CRE-luciferase, luminescence, 24 h, GLP-1R form is constitutively active; activity change, negative = inhibition: at 38.3 µM (top of the series) unless noted
In short: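 Constitutively active GLP-1R drives a cAMP-responsive luciferase in stably transfected HEK293 cells; test compounds are added after overnight (12 h) attachment and left 24 hr, and signal loss in luminescence marks inhibition.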
On the % scale 0 is the no-effect control and ±100 the full control effect; potency means the concentration at half of the fitted maximal effect; tags describe the fitted curve by direction and shape.

| Compound | Potency | activity change, negative = inhibition |
| --- | --- | --- |
| NS(=O)(=O)c1cccc(NC(=O)c2cccc(Oc3ccccc3)c2)c1 | inconclusive: 11.2 µM [inhibitor, partial curve, poor fit] |  |
| CN(CC(=O)Nc1cccc(F)c1)C(=O)c1sccc1-c1ccccc1 | inconclusive: 10 µM [inhibitor, partial curve, poor fit] |  |
| CN(C)S(=O)(=O)c1cccc(-c2nn(-c3ccccc3)cc2/C=C2\SC(=S)NC2=O)c1 | inconclusive: 28.2 µM [inhibitor, single point] |  |
| COc1ccc(CN2C(=O)C(NC(=O)c3ccccc3OC)(C(F)(F)F)N=C2c2ccccc2)cc1 (stereo not drawn) | inconclusive: 11.2 µM [inhibitor, partial curve, poor fit] |  |
| COc1ccc(OCCC(=O)OCC(=O)Nc2cccc(S(=O)(=O)N3CCOCC3)c2)cc1 |  | inactive: -8.43% |
| CCc1ccc(S(=O)(=O)c2nnn(-c3cccc(C)c3)c2N)cc1 | inconclusive: 28.2 µM [inhibitor, single point] |  |
| CCc1ccc(NC(=O)CCn2cnc3ccccc3c2=O)cc1 |  | inactive: 2.47% |
| CC#CCN1C=C(C(=O)OCC)C(C)N(Cc2ccc(Br)cc2)S1(=O)=O (stereo not drawn) | inconclusive: 28.2 µM [inhibitor, single point] |  |
| Cn1c(Oc2ccc(F)cc2)c(C=O)c2ccccc21 | active: 10 µM |  |
| COc1ccc(CCNC(=O)CCC(=O)c2cccs2)cc1OC |  | inactive: 22.3% |
| CC1(C(=O)NC2CCc3ccccc32)CCN1CCc1ccccc1 (stereo not drawn) | inconclusive: 28.2 µM [inhibitor, single point] |  |
| CC(C)(C)N(CC#CCC(O)(c1ccccc1)C1CCCC1)CCO (stereo not drawn) | inconclusive: 15.8 µM [inhibitor, partial curve, poor fit] |  |
| CC(=O)N1CCc2c(sc3c2c(=O)n(Cc2ccccc2)c(=O)n3CC(=O)Nc2ccc(C)c(F)c2)C1 |  | inactive: 10.1% |
| CCCCNC(=O)c1nc(C2CCN(S(=O)(=O)c3ccccc3C(F)(F)F)CC2)oc1-c1ccccc1 | inconclusive: 7.94 µM [inhibitor, partial curve] |  |
| CC(C)(C)c1ccc(C(=O)Nc2ncn[nH]2)cc1 | inconclusive: 22.4 µM [inhibitor, single point] |  |
| O=C(Cn1ccc2ccccc2c1=O)NCCC(=O)Nc1cccnc1 | inconclusive: 20 µM [inhibitor, single point] |  |
| COc1ccc(N2Cc3cccc(C(=O)NC(C)CCc4ccco4)c3C2=O)cc1 (stereo not drawn) | inconclusive: 28.2 µM [inhibitor, single point] |  |
| CN(Cc1ccc(C(F)(F)F)cc1)C(=O)C1CCC(=O)N(C2CC2)C1 (stereo not drawn) |  | inactive: 7.54% |
| Cc1cc(NCc2ccco2)nc(N2CCC(C(=O)NC3CCCCC3)CC2)n1 | inconclusive: 28.2 µM [inhibitor, single point] |  |
| CCOC(=O)c1c(-c2ccccc2)oc2ccc(NS(=O)(=O)c3ccc(C(C)C)cc3)cc12 | inconclusive: 28.2 µM [inhibitor, single point] |  |
| CCCCCn1c(=N)n(CC(O)COc2ccccc2OC)c2ccccc21 (stereo not drawn) | inconclusive: 7.94 µM [inhibitor, partial curve, poor fit] and inconclusive: 11.2 µM [inhibitor, partial curve, poor fit] |  |

| Compound | Potency | activity change, negative = inhibition |
| --- | --- | --- |
| CCOc1ccccc1CNC(=O)CN1C(=O)CCc2cc(S(=O)(=O)N3CCCCC3)ccc21 |  | inactive: -7.64% |
| COc1ccc(C)cc1NC(=O)CSc1ccc(Cl)cc1 | inconclusive: 12.6 µM [inhibitor, partial curve, poor fit] |  |
| COc1ccc(OC)c(NC(=S)N2CCN(C/C=C/c3ccccc3)CC2)c1 | inconclusive: 28.2 µM [inhibitor, single point] |  |
| COc1ccc(CCNC(=O)Nc2cccc([N+](=O)[O-])c2)cc1OC | inconclusive: 8.91 µM [inhibitor, partial curve, poor fit] |  |
| COc1ccc(C(C)=O)cc1COc1ccc([N+](=O)[O-])c(C)c1 | inconclusive: 10 µM [inhibitor, partial curve] |  |
| COc1ccc(CC2(CO)CCN(Cc3cc4ccccc4o3)CC2)cc1 | active: 10 µM |  |
| O=C1/C(=C/c2cccs2)SC(=S)N1CC(=O)N1CCCCC1CCO (stereo not drawn) | inconclusive: 28.2 µM [inhibitor, single point] |  |
| Cc1ccc(S(=O)(=O)N(C)C)cc1NC(=S)NC1CCCC(C)C1C (stereo not drawn) | inconclusive: 7.94 µM [inhibitor, partial curve, poor fit] |  |
| O=S(=O)(c1ccc(Br)c2ccccc12)N1CCOCC1 | inconclusive: 11.2 µM [inhibitor, single point] |  |
| Cc1cccnc1C(NC(=O)C1CCN(Cc2ccc(Cl)cc2)CC1)c1ccccc1 (stereo not drawn) | inconclusive: 31.6 µM [inhibitor, single point] |  |
| Oc1ccc(Br)cc1CNc1nccs1 | inconclusive: 28.2 µM [inhibitor, single point] |  |
| O=S(=O)(NCc1ccccc1)c1ccccc1NCc1ccc(Cl)cc1 | inconclusive: 25.1 µM [inhibitor, single point] |  |
| CC(C)NC(=O)Cn1nc(C(F)(F)F)c2c1CCC2 |  | inactive: 5.34% |
| COC(=O)C1=C(C)NC(=O)C1(NC(=O)c1ccccc1C)C(F)(F)F (stereo not drawn) |  | inactive: 13.1% |
| Cc1cc(-n2c(SCC(=O)Nc3ccc(Br)cc3)nc3n[nH]c(C)c3c2=N)ccc1Cl | inconclusive: 28.2 µM [inhibitor, single point] |  |
| Fc1ccc(NC(=S)NC2CC3CCCC(C2)N3Cc2cccs2)cc1 (stereo not drawn) | inconclusive: 11.2 µM [inhibitor, partial curve, poor fit] |  |
| COCCNC(=O)CSc1nc(-c2ccc(C)cc2)nc2c1c(=O)n(C)c(=O)n2C |  | inactive: 7.75% |
| COc1ccc2oc(C(=O)OC(C)C(=O)N3CCC(C)CC3)c(C)c2c1 (stereo not drawn) | inconclusive: 31.6 µM [inhibitor, partial curve, poor fit] |  |
| CC(=O)N1CCN(C(=O)c2ccc(NS(=O)(=O)c3cc(C)ccc3C)cc2)CC1 | inconclusive: 10 µM [inhibitor, single point] |  |
| CCOc1ccc(-c2cc(C(=O)N3CCC(C)CC3)c3ccccc3n2)cc1 |  | inactive: -5.12% |
| COc1ccc(Nc2nc(N)nc(CSC(=S)N3CCCCC3)n2)cc1 | inconclusive: 28.2 µM [inhibitor, single point] |  |

| Compound | Potency | activity change, negative = inhibition |
| --- | --- | --- |
| CCOc1cc(C(=O)Nc2ccc(S(=O)(=O)NC3=NCCCCC3)cc2)cc(OCC)c1OCC | inconclusive: 12.6 µM [inhibitor, single point] |  |
| COc1ccc(CCNc2nc(=S)[nH]c3cc(OC)c(OC)cc23)cc1OC |  | inactive: 0.162% |
| COc1ccc(NC(=O)CN2C(=O)C(c3ccccc3)=NC23CCCCCC3)cc1OC |  | inactive: -8.64% |
| CC(C)C(NCC(=O)Nc1ccccc1C(=O)NC1CC1)c1ccccc1 (stereo not drawn) | active: 10 µM |  |
| COC(=O)c1c(NC(=O)c2ccccc2[N+](=O)[O-])sc2c1CC(C)(C)NC2(C)C | inconclusive: 3.98 µM [inhibitor, partial curve, poor fit] |  |
| COc1ccc(NC(=O)Cn2ccn(-c3ccccc3)c(=O)c2=O)cc1 |  | inactive: 5.65% |
| CCC(C)n1c(SCC(=O)Nc2ccccc2C(F)(F)F)nc2ccsc2c1=O (stereo not drawn) | inconclusive: 28.2 µM [inhibitor, single point] |  |
| Cc1oc(S(=O)(=O)N2CCCCC2)cc1NC(=O)Nc1ccc(Cl)cc1 | inconclusive: 3.55 µM [inhibitor, full curve, poor fit] |  |
| COc1cccc(CNC(=O)Cn2ccc3cc(S(=O)(=O)N4CCC(C)CC4)ccc32)c1 | inconclusive: 10 µM [inhibitor, partial curve] |  |
| COc1ccc(C(=O)O)cc1S(=O)(=O)N(CCc1ccccc1)Cc1ccccc1 | inconclusive: 31.6 µM [inhibitor, single point] |  |
| Cc1ccc(S(=O)(=O)N2[C@H](CC(=O)c3ccccc3)OC[C@@H]2C(C)C)cc1 | inconclusive: 20 µM [inhibitor, single point] |  |
| O=C(COC(=O)c1c2c(nc3ccccc13)/C(=C\c1cccs1)CCC2)Nc1ccccc1Cl | inconclusive: 2.24 µM [inhibitor, full curve] |  |
| Cc1ccc(NC(=O)CCCSc2nc3ccccc3[nH]2)cc1 | inconclusive: 12.6 µM [inhibitor, single point] |  |
| CCN(CC)S(=O)(=O)c1ccc(N2CCOCC2)c(NC(=O)C23CC4CC(CC(Cl)(C4)C2)C3)c1 | inconclusive: 31.6 µM [inhibitor, single point] |  |
| COCCNc1ncnc2c1cnn2Cc1ccccc1Cl | inconclusive: 12.6 µM [inhibitor, single point] |  |
| O=S(=O)(NC1c2cccc3cccc(c23)C1Sc1ncccn1)c1ccccc1 (stereo not drawn) | inconclusive: 10 µM [inhibitor, partial curve, poor fit] |  |
| COc1cc(C(=O)OCC(=O)c2cc(C)n(CC3CCCO3)c2C)cc(OC)c1C (stereo not drawn) | inconclusive: 22.4 µM [inhibitor, single point] |  |
| Cc1noc(C)c1COC(=O)C1(c2cccc(F)c2)CCCC1 | inconclusive: 2.82 µM [inhibitor, partial curve, poor fit] |  |
| Cc1c(C(=O)NCc2ccc(Cl)c(Cl)c2)sc(=O)n1Cc1ccc(S(C)(=O)=O)cc1 | inconclusive: 28.2 µM [inhibitor, single point] |  |
| Cn1cnnc1Sc1ccc(S(C)(=O)=O)cc1[N+](=O)[O-] | inconclusive: 11.2 µM [inhibitor, single point] |  |
| CC(C)COc1ccccc1C1CC(=O)Nc2cc3c(cc21)OCO3 (stereo not drawn) | inconclusive: 3.55 µM [inhibitor, partial curve, poor fit] |  |

— PubChem BioAssay AID624417 (National Center for Advancing Translational Sciences (NCATS), 2012)
